Read-outs that look alike come from different tables or passages of the source.
Key:
ABCC4 [1] = molecular target: T1, ABCC4 (Homo sapiens, UniProt O15439); settings: HeLa-Co vesicles, 5 μM [^3H]C-tau
T1 sequence (O15439 1-1325): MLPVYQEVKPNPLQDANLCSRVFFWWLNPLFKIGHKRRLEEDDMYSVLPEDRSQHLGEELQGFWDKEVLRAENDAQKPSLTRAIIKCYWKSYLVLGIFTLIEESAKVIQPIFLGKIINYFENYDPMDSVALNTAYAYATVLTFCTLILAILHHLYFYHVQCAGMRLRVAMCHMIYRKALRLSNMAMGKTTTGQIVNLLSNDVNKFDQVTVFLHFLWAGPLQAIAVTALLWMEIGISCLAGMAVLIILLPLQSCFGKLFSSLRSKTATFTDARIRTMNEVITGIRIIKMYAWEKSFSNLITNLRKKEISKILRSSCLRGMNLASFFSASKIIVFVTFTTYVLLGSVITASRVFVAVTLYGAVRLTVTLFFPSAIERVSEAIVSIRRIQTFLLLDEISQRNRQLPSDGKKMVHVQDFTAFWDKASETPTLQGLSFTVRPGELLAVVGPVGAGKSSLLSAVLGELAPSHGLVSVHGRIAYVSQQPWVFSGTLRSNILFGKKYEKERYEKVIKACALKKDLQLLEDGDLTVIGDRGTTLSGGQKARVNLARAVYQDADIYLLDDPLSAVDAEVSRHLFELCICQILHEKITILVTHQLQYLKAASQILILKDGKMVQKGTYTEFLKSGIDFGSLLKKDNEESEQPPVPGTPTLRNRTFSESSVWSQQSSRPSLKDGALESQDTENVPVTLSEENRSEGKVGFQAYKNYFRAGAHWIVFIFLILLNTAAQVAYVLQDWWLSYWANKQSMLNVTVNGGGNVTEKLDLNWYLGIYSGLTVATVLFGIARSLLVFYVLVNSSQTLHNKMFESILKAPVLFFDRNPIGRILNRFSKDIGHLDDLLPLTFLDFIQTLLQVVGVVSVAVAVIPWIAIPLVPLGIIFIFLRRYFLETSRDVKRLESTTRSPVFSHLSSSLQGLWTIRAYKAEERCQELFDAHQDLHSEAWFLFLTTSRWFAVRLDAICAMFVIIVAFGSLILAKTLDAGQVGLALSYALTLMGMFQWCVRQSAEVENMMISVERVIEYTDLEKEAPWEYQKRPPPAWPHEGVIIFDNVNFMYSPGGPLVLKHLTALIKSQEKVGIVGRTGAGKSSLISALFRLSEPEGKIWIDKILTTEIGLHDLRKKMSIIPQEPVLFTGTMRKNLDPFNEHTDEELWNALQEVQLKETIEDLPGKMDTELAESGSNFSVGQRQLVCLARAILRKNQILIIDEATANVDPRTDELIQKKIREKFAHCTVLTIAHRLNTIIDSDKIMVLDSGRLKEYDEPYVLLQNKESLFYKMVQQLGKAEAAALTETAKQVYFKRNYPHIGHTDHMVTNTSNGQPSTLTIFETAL

ABCC4 [2] = molecular target: T1, ABCC4; test: ATP-dependent substrate transport and kinetic analysis in plasma membrane vesicles from human platelets (endogenous ABCC4); settings: for ATP-dependent [^3H]C-tau transport: platelet plasma membrane fraction, 5 μM [^3H]C-tau
ABCC4 [3] = molecular target: T1, ABCC4; settings: for ATP-dep. [^3H]LTB4 Transport (% of control): 100 nM [^3H]LTB4, 5 mM GSH, 5 min at 37° C.; for ATP-dep. [^3H]LTB4 Transport (% of control) / inhibition of ATP-dependent [^3H]LTB4 transport: V79-ABCC4 vesicles; for inhibition of ATP-dependent [^3H]LTB4 transport / inhibition of ATP-dependent [^3H]LTB4 transport (in words): 1 μM; for inhibition at 10 µM: read-out: inhibition of ATP-dependent [^3H]LTB4 transport
ABCC4 [4] = molecular target: T1, ABCC4; test: ATP-dependent substrate transport and kinetic analysis in membrane vesicles from V79 cells with recombinant ABCC4; type: biochemical; design: expressed in transfected cells; host or cells: Chinese hamster lung V79 fibroblasts (V79-ABCC4), inside-out membrane vesicles; settings: for Km: vesicles from V79-ABCC4; for ATP-dependent LTC4 accumulation: 100 nM, after 5 min
ABCC4 [5] = molecular target: T1, ABCC4; test: Inhibition of ATP-dependent [3H]LTC4 transport into plasma membrane vesicles from human platelets; type: biochemical; design: expressed in transfected cells; host or cells: Chinese hamster lung V79 fibroblasts (V79-ABCC4), inside-out membrane vesicles; settings: for ATP-dep. [^3H]LTC4 Transport (% of control): 100 nM [^3H]LTC4, 3 min at 37° C., human platelet vesicles

## cholyltaurine
ABCC4 [1]; with 5 mM GSH
  ATP-dependent [^3H]C-tau transport: 14.3 pmol×mg protein^−1×min^−1
ABCC4 [1]; without GSH
  ATP-dependent [^3H]C-tau transport: 1.7 pmol×mg protein^−1×min^−1
ABCC4 [2]; 5 mM GSH
  ATP-dependent [^3H]C-tau transport: 2.8 pmol×mg protein^−1×min^−1
ABCC4 [2]; without GSH
  ATP-dependent [^3H]C-tau transport: 0.7 pmol×mg protein^−1×min^−1
ABCC4 [3]; compound 10 μM
  ATP-dep. [^3H]LTB4 Transport (% of control): 39 ± 2 % of control

## CCCCC/C=C\C\C=C/C=C/C=C/[C@@H](SC[C@H](N)C(=O)NCC(=O)O)[C@@H](O)CCCC(=O)O [LTD4, leukotriene D4]
ABCC4 [4]; vesicles from V79-ABCC4 cells, absence of GSH
  ATP-dependent transport rate of [^3H]LTD4: 0.6 pmol×mg protein^−1×min^−1
ABCC4 [3]; presence of GSH
  inhibition of ATP-dependent [^3H]LTB4 transport: 33%
ABCC4 [3]; compound 1 μM
  ATP-dep. [^3H]LTB4 Transport (% of control): 67 ± 9 % of control

## CN(C)C(=O)CCSC(SCCC(=O)O)c1cccc(/C=C/c2ccc3ccc(Cl)cc3n2)c1 (stereo not shown) [MK571]
ABCC4 [5]; 20 μM, vesicles from human platelets
  inhibition at 20 µM: 32%
ABCC4 [5]; compound 10 μM, absence of GSH
  ATP-dep. [^3H]LTC4 Transport (% of control): 89 ± 6 % of control
ABCC4 [5]; compound 20 μM, absence of GSH
  ATP-dep. [^3H]LTC4 Transport (% of control): 68 ± 3 % of control
ABCC4 [3]; compound 10 μM
  ATP-dep. [^3H]LTB4 Transport (% of control): 60 ± 4 % of control
ABCC4 [3]; compound 20 μM
  ATP-dep. [^3H]LTB4 Transport (% of control): 47 ± 2 % of control
ABCC4 [3]; presence of GSH
  inhibition of LTB4 transport (in words): effective inhibitors

## O=C1C(CC[S+]([O-])c2ccccc2)C(=O)N(c2ccccc2)N1c1ccccc1 (stereo not shown) [Sulfinpyrazone, sulfinpyrazone]
ABCC4 [3]; compound 100 μM
  ATP-dep. [^3H]LTB4 Transport (% of control): 73 ± 7 % of control

## COc1ccc2c(c1)c(CC(=O)O)c(C)n2C(=O)c1ccc(Cl)cc1 [Indomethacin, indomethacin]
ABCC4 [3]
  inhibition at 10 µM: 68%

## CCCCC/C=C\C[C@@H](O)/C=C/C=C/C=C\[C@@H](O)CCCC(=O)O [LTB4, Leukotriene B4]
ABCC4 [4]; 100 nM [^3H]LTB4, 5 mM GSH, V79 vesicles
  increase of the rate of ABCC4-mediated [^3H]LTB4 transport by GSH: 4.7 fold
ABCC4 [4]; 0.1 to 1 μM LTB4, 5 mM GSH, read-out: Km value for ABCC4 (LTB4 transport)
  Km: 5.2 ± 0.2 µM
ABCC4 [2]; read-out: Km value for ABCC4 (LTB4 transport), vesicles from human platelets, 0.1 to 1 μM LTB4, 5 mM GSH
  Km: 5.6 ± 0.6 µM

## CCCCCC=CCC(O)C=CC=CCC=CCCCC(=O)O (stereo not shown) [12-Hydroxy-5,8,10,14-eicosatetraenoate, 12-hydroxy-5,8,10,14-eicosatetraenoate]
ABCC4 [3]; presence of GSH
  inhibition of ATP-dependent [^3H]LTB4 transport (in words): did not cause a significant inhibition
ABCC4 [3]; compound 1 μM
  ATP-dep. [^3H]LTB4 Transport (% of control): 106 ± 6 % of control

## CCCCCCCCCCSC[C@H](NC(=O)CC[C@H](N)C(=O)O)C(=O)NCC(=O)O [S-Decyl GSH, S-decyl glutathione]
ABCC4 [5]; 1 μM, vesicles from human platelets
  inhibition at 1 µM: 58%
ABCC4 [5]; compound 1 μM, absence of GSH
  ATP-dep. [^3H]LTC4 Transport (% of control): 42 ± 2 % of control
ABCC4 [5]; compound 10 μM, absence of GSH
  ATP-dep. [^3H]LTC4 Transport (% of control): 11 ± 1 % of control
ABCC4 [3]; compound 1 μM
  ATP-dep. [^3H]LTB4 Transport (% of control): 65 ± 6 % of control
ABCC4 [3]; compound 10 μM
  ATP-dep. [^3H]LTB4 Transport (% of control): 26 ± 3 % of control
ABCC4 [3]
  inhibition at 10 µM: 74%

## CCCN(CCC)S(=O)(=O)c1ccc(C(=O)O)cc1 [Probenecid, probenecid]
ABCC4 [3]; compound 100 μM
  ATP-dep. [^3H]LTB4 Transport (% of control): 73 ± 7 % of control

## CSc1ccc(/C=C2/C(C)=C(CC(=O)O)c3cc(F)ccc32)cc1 [Sulindac sulfide, sulindac sulfide]
ABCC4 [5]; 10 μM, absence of GSH, platelets
  inhibition of LTC4 transport (in words): did not inhibit
ABCC4 [5]; compound 1 μM + 5 mM GSH
  ATP-dep. [^3H]LTC4 Transport (% of control): 63 ± 6 % of control
ABCC4 [5]; compound 1 μM, absence of GSH
  ATP-dep. [^3H]LTC4 Transport (% of control): 99 ± 5 % of control
ABCC4 [5]; compound 10 μM + 5 mM GSH
  ATP-dep. [^3H]LTC4 Transport (% of control): 2 ± 0.5 % of control
ABCC4 [5]; compound 10 μM, absence of GSH
  ATP-dep. [^3H]LTC4 Transport (% of control): 108 ± 2 % of control
ABCC4 [5]; presence of 5 mM GSH, platelets
  inhibition of LTC4 transport: 90%
ABCC4 [3]; compound 1 μM
  ATP-dep. [^3H]LTB4 Transport (% of control): 38 ± 4 % of control
ABCC4 [3]; compound 10 μM
  ATP-dep. [^3H]LTB4 Transport (% of control): 26 ± 3 % of control
ABCC4 [3]
  inhibition at 10 µM: 74%

## N[C@@H](CCC(=O)N[C@@H](CS)C(=O)NCC(=O)O)C(=O)O [GSH, reduced glutathione]
ABCC4 [4]; constant 100 nM LTB4, GSH 1 to 10 mM, read-out: Km value of GSH for ABCC4
  Km: 1100 ± 200 µM

## CCCCCC=CCC=CCC=CC=CC(O)CCCC(=O)O (stereo not shown) [5-Hydroxy-6,8,11,14-eicosatetraenoate]
ABCC4 [3]; presence of GSH
  inhibition of ATP-dependent [^3H]LTB4 transport (in words): did not cause a significant inhibition
ABCC4 [3]; compound 1 μM
  ATP-dep. [^3H]LTB4 Transport (% of control): 86 ± 7 % of control

## OCCN(CCO)c1nc(N2CCCCC2)c2nc(N(CCO)CCO)nc(N3CCCCC3)c2n1 [Dipyridamole, dipyridamole]
ABCC4 [3]; compound 10 μM
  ATP-dep. [^3H]LTB4 Transport (% of control): 57 ± 3 % of control

## CCCCC/C=C\C\C=C/C=C/C=C/[C@@H](SC[C@H](NC(=O)CC[C@H](N)C(=O)O)C(=O)NCC(=O)O)[C@@H](O)CCCC(=O)O [LTC4, leukotriene C4]
ABCC4 [4]; 100 nM LTC4
  LTC4 transport rate, V79-ABCC4 versus V79-Co vesicles: 2.2 fold
ABCC4 [4]; vesicles from ABCC4-transfected V79 cells
  ATP-dependent LTC4 accumulation: 32.3±3.2 pmol×mg protein^−1
ABCC4 [4]; vesicles from vector-transfected V79 cells
  ATP-dependent LTC4 accumulation: 14±0.5 pmol×mg protein^−1
ABCC4 [4]; V79-ABCC4
  Vmax (LTC4 transport): 37.4 pmol×mg protein^−1×min^−1
ABCC4 [4]; 0.1 to 2 μM LTC4, read-out: Km value for ABCC4 (LTC4 transport)
  Km: 0.13 ± 0.02 µM
ABCC4 [2]; human platelets
  Vmax (LTC4 transport): 9.7 pmol×mg protein^−1×min^−1
ABCC4 [2]; read-out: Km value for ABCC4 (LTC4 transport), vesicles from human platelets, 0.1 to 2 μM LTC4
  Km: 0.32 ± 0.03 µM
ABCC4 [2]; vesicles from human platelets, 100 nM [^3H]LTC4
  LTC4 transport rate: 0.6 pmol×mg protein^−1×min^−1
ABCC4 [3]; presence of GSH
  inhibition of ATP-dependent [^3H]LTB4 transport: 61%
ABCC4 [3]; compound 1 μM
  ATP-dep. [^3H]LTB4 Transport (% of control): 39 ± 4 % of control

## CCCCC[C@H](O)/C=C/[C@H]1[C@H](O)CC(=O)[C@@H]1C/C=C\CCCC(=O)O [Prostaglandin E2, prostaglandin E2]
ABCC4 [3]; compound 10 μM
  ATP-dep. [^3H]LTB4 Transport (% of control): 46 ± 5 % of control
